In PubChem BioAssay AID504332 (National Center for Advancing Translational Sciences (NCATS), 2011):
In all, about 350,000 compounds went through this assay and about 31,000 (8.9%) were called active. The inconclusive results got no clear call from the source; some entries with a clear call stand among them for comparison. Calls come from the whole dose curve; as a rule, active = well fitted inhibition curve with a large enough effect; inconclusive = small, poorly fitted or top-dose-only effect; inactive = no such curve, though single readings can be large or run the other way. Potencies beside an inconclusive call are fits to weak or partial responses and may not hold up.

target: Histone-lysine N-methyltransferase EHMT2 (Homo sapiens) (UniProt Q96KQ7); experiment: qHTS Assay for Inhibitors of Histone Lysine Methyltransferase G9a; conditions: G9a H3K9 monomethylation, AlphaScreen, 2 h; activity, negative = inhibition: at 59 µM (top of the series) unless noted; note: nearly all actives have a fitted effect of over 75% in size
Chain of UniProt Q96KQ7 (Q96KQ7 whole entry, looked up): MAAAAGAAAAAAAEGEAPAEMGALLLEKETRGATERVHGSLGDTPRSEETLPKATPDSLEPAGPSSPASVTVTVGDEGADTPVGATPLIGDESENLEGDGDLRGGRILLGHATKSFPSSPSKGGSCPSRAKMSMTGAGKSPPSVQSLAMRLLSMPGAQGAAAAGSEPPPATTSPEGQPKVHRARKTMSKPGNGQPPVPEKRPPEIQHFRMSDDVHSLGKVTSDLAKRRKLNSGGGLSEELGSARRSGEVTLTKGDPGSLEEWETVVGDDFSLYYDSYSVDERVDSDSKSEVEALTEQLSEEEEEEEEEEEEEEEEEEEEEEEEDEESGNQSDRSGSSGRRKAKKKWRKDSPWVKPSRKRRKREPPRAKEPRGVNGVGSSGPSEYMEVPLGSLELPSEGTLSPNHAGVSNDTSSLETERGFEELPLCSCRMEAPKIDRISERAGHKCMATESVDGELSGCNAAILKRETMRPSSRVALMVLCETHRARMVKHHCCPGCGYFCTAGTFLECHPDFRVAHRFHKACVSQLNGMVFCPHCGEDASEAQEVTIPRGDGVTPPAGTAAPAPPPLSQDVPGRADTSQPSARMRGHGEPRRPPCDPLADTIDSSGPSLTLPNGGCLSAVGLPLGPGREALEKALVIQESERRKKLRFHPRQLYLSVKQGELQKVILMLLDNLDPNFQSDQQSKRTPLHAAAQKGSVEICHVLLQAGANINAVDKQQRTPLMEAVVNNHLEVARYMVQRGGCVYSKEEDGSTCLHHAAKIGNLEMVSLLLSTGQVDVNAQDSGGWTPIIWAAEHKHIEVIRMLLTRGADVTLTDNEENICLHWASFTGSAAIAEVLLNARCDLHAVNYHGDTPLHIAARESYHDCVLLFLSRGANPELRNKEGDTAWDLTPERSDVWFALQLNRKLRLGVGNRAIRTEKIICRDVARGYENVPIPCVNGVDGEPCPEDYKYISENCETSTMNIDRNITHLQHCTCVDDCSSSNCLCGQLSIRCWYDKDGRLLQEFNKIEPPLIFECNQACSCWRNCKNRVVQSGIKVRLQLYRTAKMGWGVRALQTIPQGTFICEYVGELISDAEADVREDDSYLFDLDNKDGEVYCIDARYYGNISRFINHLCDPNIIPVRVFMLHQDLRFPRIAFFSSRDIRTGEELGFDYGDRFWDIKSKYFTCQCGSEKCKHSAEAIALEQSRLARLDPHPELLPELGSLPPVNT
Outline: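 Chemiluminescent proximity detection of H3K9 monomethylation, read after 10 min bead incubation in the dark. Reaction: 20 nM G9a, 500 nM biotin-H3K9 peptide, 20 uM SAM cofactor, 2 h, room temperature, following 15 min enzyme-compound preincubation.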
% is set by controls: 0 for no effect and ±100 for the full control effect; potency is the fitted concentration of half-maximal effect; tags give direction and shape of the fitted curve.

| SMILES | Potency | activity, negative = inhibition |
| --- | --- | --- |
| COc1ccccc1NS(=O)(=O)c1cc(NC(=O)C2CCC2)ccc1N1CCCCC1 | active: 3.55 µM |  |
| CC(=O)Nc1ccc(/C=N/Nc2nncc3ccccc23)cc1 |  | inactive: 30% [at 0.501 µM] |
| O=C(c1cccs1)n1cc(C(=S)N2CCOCC2)c2ccccc21 | active: 28.2 µM |  |
| CC1CCCN(c2ccc3nc4ccccc4c(=O)n3n2)C1 (stereo unspecified) | active: 50.1 µM |  |
| COc1ccc2oc(=O)c(C(=O)N3CCN(c4cc(Cl)ccc4Cl)CC3)cc2c1 | inconclusive: 28.2 µM [inhibitor, partial curve, poor fit] |  |
| CC(C)Nc1nnc(SC(C)C(=O)NCc2ccc3c(c2)OCO3)s1 (stereo unspecified) | inconclusive: 50.1 µM [inhibitor, partial curve] |  |
| COc1ccc(-c2cc([C@H]3[C@@H]4C=CCC[C@@]4(C)C(=O)N3Cc3ccccc3)ccc2F)cc1OC |  | inactive: -39.8% |
| Fc1cc(F)c(F)c(SCn2cc(Br)cn2)c1F |  | inactive: 11.7% [at 102 µM] |
| CCCOc1ccc(/C(O)=C2/C(=O)C(=O)N(CCCN3CCOCC3)C2c2ccncc2)cc1 (stereo unspecified) | active: 14.1 µM |  |
| COc1ccc(C(=O)/C=C/Nc2ccc(S(=O)(=O)Nc3cccc(C(C)=O)c3)cc2)cc1 | inconclusive: 25.1 µM [inhibitor, single point] |  |
| Cc1cccc(C)c1NC(=O)CN(C)C(=O)C(c1ccccc1)c1ccccc1 | inconclusive: 1 µM [inhibitor, full curve] |  |
| CN(Cc1ccsc1)C(=O)Cn1cc(Br)ccc1=O |  | inactive: -3.43% [at 102 µM] |
| CCN1CCN(S(=O)(=O)c2ccc(Cl)c(C(=O)N(C)CCOc3ccc(Cl)cc3)c2)CC1 | inconclusive: 44.7 µM [inhibitor, partial curve, poor fit] |  |
| CCN1CCN(c2nc(Nc3cccc(F)c3)nc(N)c2[N+](=O)[O-])CC1 | inconclusive: 89.1 µM [inhibitor, partial curve, poor fit] |  |
| Nc1cccc(N2C(=O)c3cccc4c(N)ccc(c34)C2=O)c1 |  | inactive: 12.1% [at 102 µM] |
| COc1cc(COCC(O)CN2CCN(Cc3ccc4c(c3)OCO4)CC2)cc(OC)c1OC (stereo unspecified) | inconclusive: 63.1 µM [inhibitor, single point] |  |
| Cc1ccc(S(=O)(=O)N(C)C)cc1NC(=S)Nc1cccc2ccccc12 | inconclusive: 89.1 µM [inhibitor, single point] |  |
| Cc1ccc(S(=O)(=O)N2CCCCC2CCNC(=O)C(=O)NCCc2ccco2)cc1 (stereo unspecified) | inconclusive: 79.4 µM [inhibitor, single point] |  |

| SMILES | Potency | activity, negative = inhibition |
| --- | --- | --- |
| O=C(Cn1cnc2ccccc2c1=O)N1CCN(S(=O)(=O)c2ccc(F)cc2)CC1 |  | inactive: 30.3% [at 12.7 µM] |
| O=C(Nc1ccc(N2CCCCCC2)cc1)c1cccc(S(=O)(=O)N2CCOCC2)c1 | active: 1.78 µM |  |
| Cc1[nH]c2ccccc2c1C(=O)COC(=O)Cn1cnc2ccccc21 | inconclusive: 89.1 µM [inhibitor, single point] |  |
| C#CCSc1n[nH]c(-c2ccco2)n1 | inconclusive: 56.2 µM [inhibitor, partial curve] |  |
| O=C(c1ccc([N+](=O)[O-])s1)N1CCN(c2ccccc2)CC1 | inconclusive: 79.4 µM [inhibitor, partial curve, poor fit] |  |
| CCOC(=O)c1cc(S(=O)(=O)N2CCN(c3cccc(OC)c3)CC2)[nH]n1 | inconclusive: 31.6 µM [inhibitor, single point] |  |
| CCN1CCN(C(=O)NC(c2ccc(C)c(F)c2)C(Cl)Cl)CC1 (stereo unspecified) | inconclusive: 89.1 µM [inhibitor, single point] |  |
| CCCCN(C)C(=O)c1nc2ccccn2c1CNCCCn1nnc2ccccc21 | inconclusive: 79.4 µM [inhibitor, partial curve, poor fit] |  |
| Nc1cc(C(=O)OCC(=O)NNC(=O)c2cccs2)ccc1Cl |  | inactive: 3.85% [at 0.501 µM] |
| Cc1ccc(S(=O)(=O)N2CCOCC2)cc1NC(=O)CNc1ccccc1N1CCCC1=O | inconclusive: 50.1 µM [inhibitor, partial curve, poor fit] |  |
| Cc1nc(-c2cccc(NC(=O)COc3ccc(Cl)cc3)c2)cs1 |  | inactive: 40.2% [at 102 µM] |
| Cc1nnc(-c2cccc(Br)c2)c2cn(-c3cccc(Br)c3)nc12 | inconclusive: 79.4 µM [inhibitor, partial curve, poor fit] |  |
| CC(C)N(c1ccccc1)c1ccc(NC(=O)C2CCCO2)cc1 (stereo unspecified) | inconclusive: 31.6 µM [inhibitor, single point] |  |
| Cc1ccc(S(=O)(=O)N2CCN(C(=S)NCc3ccc4c(c3)OCO4)CC2)cc1 | inconclusive: 44.7 µM [inhibitor, partial curve] |  |
| Cc1ccc(S(=O)(=O)N(C)CC(=O)Oc2ccc(-c3nnco3)cc2)cc1 | inconclusive: 89.1 µM [inhibitor, partial curve, poor fit] |  |
| COc1cc(/C=C/C(=O)O)cc(S(=O)(=O)Nc2ccc(S(=O)(=O)N3CCCCC3)cc2)c1OC |  | inactive: -5.99% [at 0.501 µM] |
| Cc1cc(C)c2[nH]c(C(=O)Nc3ccc4c(c3)OCO4)cc2c1 | active: 17.8 µM |  |
| COC(=O)c1c(NC(=O)C(=O)NCCCN2CCOCC2)sc2c1CC(C)(C)OC2 | inconclusive: 89.1 µM [inhibitor, single point] |  |
